Consider 3 molecules from article PMC13399123.

These are yes or no findings as the source states them, for the method shown. In cells and extracts the contact can be indirect. Some results given as binding are weak or reduced against the parent protein; the word gives no strength. Tags and fused reporters may be left off the sequences shown.

In one experiment the target is T1, TKS5-EGFP, Q5TCZ1.
T1 chain: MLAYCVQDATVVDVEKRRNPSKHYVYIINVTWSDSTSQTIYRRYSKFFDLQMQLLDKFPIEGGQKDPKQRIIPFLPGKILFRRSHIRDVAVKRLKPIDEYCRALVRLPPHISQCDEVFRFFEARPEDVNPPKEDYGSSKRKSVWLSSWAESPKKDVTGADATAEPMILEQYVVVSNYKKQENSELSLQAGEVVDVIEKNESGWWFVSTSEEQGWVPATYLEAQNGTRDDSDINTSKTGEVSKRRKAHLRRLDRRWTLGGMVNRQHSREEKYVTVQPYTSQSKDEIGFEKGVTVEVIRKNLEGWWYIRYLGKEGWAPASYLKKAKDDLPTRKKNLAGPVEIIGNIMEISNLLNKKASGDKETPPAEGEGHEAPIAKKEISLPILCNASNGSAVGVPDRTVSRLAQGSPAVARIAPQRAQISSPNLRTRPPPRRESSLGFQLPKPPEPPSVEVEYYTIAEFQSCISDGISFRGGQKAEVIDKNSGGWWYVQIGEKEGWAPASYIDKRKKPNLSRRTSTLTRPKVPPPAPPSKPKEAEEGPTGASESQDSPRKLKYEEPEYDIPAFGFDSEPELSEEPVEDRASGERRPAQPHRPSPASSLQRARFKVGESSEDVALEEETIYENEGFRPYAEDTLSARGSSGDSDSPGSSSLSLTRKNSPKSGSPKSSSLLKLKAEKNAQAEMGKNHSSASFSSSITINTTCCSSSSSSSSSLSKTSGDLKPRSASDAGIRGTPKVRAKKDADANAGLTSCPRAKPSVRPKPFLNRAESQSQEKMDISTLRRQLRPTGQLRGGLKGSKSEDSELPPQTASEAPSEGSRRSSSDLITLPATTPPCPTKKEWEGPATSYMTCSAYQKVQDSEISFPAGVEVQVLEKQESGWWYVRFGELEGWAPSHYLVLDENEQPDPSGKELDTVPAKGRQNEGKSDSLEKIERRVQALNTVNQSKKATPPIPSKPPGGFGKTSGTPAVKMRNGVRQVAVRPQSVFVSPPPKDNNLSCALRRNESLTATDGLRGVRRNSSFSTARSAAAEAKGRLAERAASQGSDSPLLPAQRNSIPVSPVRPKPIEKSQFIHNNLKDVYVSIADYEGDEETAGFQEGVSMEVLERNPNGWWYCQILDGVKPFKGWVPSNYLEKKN
Kind of experiment: co-IP; GFP-Trap agarose beads, at least 450 ug MKN-74 lysate in RIPA buffer, 2.5 h, four washes in RIPA buffer, immunoblot; for TKS5-EGFP in MKN-74 WT and HS1BP3 KO cells. Conditions: remark: other sources report otherwise.

The target in a further experiment is T2, TKS5-EGFP (UniProt Q5TCZ1).
T2 sequence: T1 chain
The experiment is described as above.

Experiment [1] addresses GST-SH3 (SH3 domain of cortactin fused to GST) (UniProt Q14247). In words: pull-down; GST-SH3 (cortactin) on Glutathione Sepharose 4B beads incubated with 450 ug MKN-74 cell lysate, 2 h at 4 °C, six washes with GST-buffer, anti-HS1BP3 immunoblot; only the target purified. (In general: In western blotting, separated proteins are transferred to a membrane and probed.)

B1: cortactin (CTTN), endogenous in MKN-74 cells, Q14247 1-550 (protein)
chain: MWKASAGHAVSIAQDDAGADDWETDPDFVNDVSEKEQRWGAKTVQGSGHQEHINIHKLRENVFQEHQTLKEKELETGPKASHGYGGKFGVEQDRMDKSAVGHEYQSKLSKHCSQVDSVRGFGGKFGVQMDRVDQSAVGFEYQGKTEKHASQKDYSSGFGGKYGVQADRVDKSAVGFDYQGKTEKHESQRDYSKGFGGKYGIDKDKVDKSAVGFEYQGKTEKHESQKDYVKGFGGKFGVQTDRQDKCALGWDHQEKLQLHESQKDYKTGFGGKFGVQSERQDSAAVGFDYKEKLAKHESQQDYSKGFGGKYGVQKDRMDKNASTFEDVTQVSSAYQKTVPVEAVTSKTSNIRANFENLAKEKEQEDRRKAEAERAQRMAKERQEQEEARRKLEEQARAKTQTPPVSPAPQPTEERLPSSPVYEDAASFKAELSYRGPVSGTEPEPVYSMEAADYREASSQQGLAYATEAVYESAEAPGHYPAEDSTYDEYENDLGITAVALYDYQAAGDDEISFDPDDIITNIEMIDDGWWRGVCKGRYGLFPANYVELRQ
On to B1, for which the binding result with TKS5-EGFP, Q5TCZ1 is “binds”.

B2: HCLS1-binding protein 3 (HS1BP3), endogenous in MKN-74 cells (protein, UniProt Q53T59 1-392)
chain: MQSPAVLVTSRRLQNAHTGLDLTVPQHQEVRGKMMSGHVEYQILVVTRLAAFKSAKHRPEDVVQFLVSKKYSEIEEFYQKLSSRYAAASLPPLPRKVLFVGESDIRERRAVFNEILRCVSKDAELAGSPELLEFLGTRSPGAAGLTSRDSSVLDGTDSQTGNDEEAFDFFEEQDQVAEEGPPVQSLKGEDAEESLEEEEALDPLGIMRSKKPKKHPKVAVKAKPSPRLTIFDEEVDPDEGLFGPGRKLSPQDPSEDVSSVDPLKLFDDPDLGGAIPLGDSLLLPAACESGGPTPSLSHRDASKELFRVEEDLDQILNLGAEPKPKPQLKPKPPVAAKPVIPRKPAVPPKAGPAEAVAGQQKPQEQIQAMDEMDILQYIQDHDTPAQAAPSLF
As for B2, the binding entry with TKS5-EGFP is on record as “no binding”; in experiment [1], “binds”.

B3: EGFP-HS1BP3 WT (protein, UniProt Q53T59 1-392)
chain: B2 chain
As for B3, the binding result in experiment [1] was “binds”.
